# This is one part of the list.
# System: PfAP2-HC AP2 domain (GST-tagged)
# Experiment: gcPBM binding intensity (ln(normalized median fluorescence intensity)); higher = stronger DNA binding
# How it was run: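 An Agilent 4 × 180k array of primer-extended double-stranded 36-bp intergenic genomic probes, with negative controls, was incubated for 1 h with GST-tagged P. falciparum DNA-binding domains expressed in E. coli. Alexa488 anti-GST antibody detected bound protein, scanned at 488 nm. Binding intensity is the highest Masliner-normalised natural-log median intensity across replicate spots of either probe orientation.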
row,Sequence,gcPBM binding intensity (ln)
1,TTTTTCTTTTTTACAGTGCATAAATATATGTATTGT [GTGCAC_site9399],9.6
2,TTGTGAATAACTAAGAAGAAAAAGATAAATATGTAT [TGCATGCA_negctrl_site388],9.54
3,TATTCATGCATATACACACACATATATTTATATTTT [CACACA_site7786],10.3
4,GAGCACCAAAATATATGTACATATGATAAATGTGAA [XGTACX_site1130],9.63
5,ACATATATATAATATATATTTTTCGTGTGGTGTCAC [CACACA_negctrl_site543],9.63
6,ATCATTGAAGTTAAAAATATAAAGTATTCAGAAGGG [XGTACX_negctrl_site560],9.57
7,AATATATATATAGGATGTACACATAATTCAAATATA [XGTACX_site2755],9.83
8,TCACTTTTATAATATAATATTCTATATCTTATTTTT [GTGCAC_negctrl_site717],9.83
9,TTTTTTATTTTATTTTTTTCTGCTTATCCACATTAG [XGTACX_negctrl_site108],9.41
10,AGCCATTATAATTCTTGTACATAATATAGCTATTTT [XGTACX_site1723],9.9
11,TATTTAAATTGTAAGTGTACATATATAAATGTAAAA [XGTACX_site1609],9.66
12,TATATAGTAATTTATTCACACAATTGGCACACCTCA [CACACA_site4679],9.89
13,TATAATATATATTTGTGTCCACAACATTTTTAATAT [XGTACX_site2089],9.68
14,AATAAATTAAAACAGGTGCACTATATTACACACGCT,9.88
15,TAGATACAGAAACACACACACACATACATATATACA [CACACA_site3437],10.6
16,TTATGGAGAGTTATATGTACGAAAAATATGTATAAG [XGTACX_site515],9.54
17,AGAATTATTGTTAATGCATGTGGAAGTTAAAATATT [TGCATGCA_site188],9.71
18,AATAATATATGGTGTACACAAAAGTATAAATAATTT [CACACA_site5338],10.1
19,TATAAAAAAATAATAAATAAATAAAAAGATTTCTTT [TGCATGCA_negctrl_site122],9.53
20,TAGATACATACACGCACACACATATATAAATAAATA [CACACA_site6157],10.9
21,TTACGTATGTATTATGTTGTATATGAAATTAAAAAA [GTGCAC_negctrl_site292],9.44
22,TAATTATGTACTATTATACACACGTTTAATTGTAAA [CACACA_site206],9.64
23,TAAAAAGGAAAACACACACACACATATATATATATA [CACACA_site3588],11.4
24,TTACTAAAAATTATTAATAAATAATAATTATAAATT [GTGCAC_negctrl_site310],9.34

# From the supplement of paper PMC11417369
